Reference: PubChem BioAssay AID624417 (National Center for Advancing Translational Sciences (NCATS), 2012)
Where “and” joins values, the source holds several entries; their conditions need not be identical. Equal entries are not always repeated. Screen size: about 410,000 compounds; about 6,400 (1.6%) were called active. The inconclusive results got no clear call from the source; some entries with a clear call stand among them for comparison. Calls come from the whole dose curve; as a rule, active = well fitted inhibition curve with a large enough effect; inconclusive = small, poorly fitted or top-dose-only effect; inactive = no such curve, though single readings can be large or run the other way. Potencies beside an inconclusive call are fits to weak or partial responses and may not hold up.

Each compound was assayed against Glucagon-like peptide 1 receptor (Homo sapiens) (UniProt P43220) (assay: qHTS of GLP-1 Receptor Inverse Agonists (Inhibition Mode)). Conditions: HEK293 GLP-1R CRE-luciferase, luminescence, 24 h, GLP-1R form is constitutively active; activity change, negative = inhibition: at 38.3 µM (top of the series) unless noted.
Method in brief: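 Assay principle: reduced luminescence from a cAMP-responsive reporter in HEK293 cells co-expressing a constitutively active GLP-1R. Conditions: 24 hr compound incubation, 37 deg C, 5% CO2.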
% is set by controls: 0 for no effect and ±100 for the full control effect; potency is the fitted concentration of half-maximal effect; tags give direction and shape of the fitted curve.
Note: nearly all actives have a fitted effect of over 55% in size.

UniProt P43220, sequence (P43220 whole entry, looked up): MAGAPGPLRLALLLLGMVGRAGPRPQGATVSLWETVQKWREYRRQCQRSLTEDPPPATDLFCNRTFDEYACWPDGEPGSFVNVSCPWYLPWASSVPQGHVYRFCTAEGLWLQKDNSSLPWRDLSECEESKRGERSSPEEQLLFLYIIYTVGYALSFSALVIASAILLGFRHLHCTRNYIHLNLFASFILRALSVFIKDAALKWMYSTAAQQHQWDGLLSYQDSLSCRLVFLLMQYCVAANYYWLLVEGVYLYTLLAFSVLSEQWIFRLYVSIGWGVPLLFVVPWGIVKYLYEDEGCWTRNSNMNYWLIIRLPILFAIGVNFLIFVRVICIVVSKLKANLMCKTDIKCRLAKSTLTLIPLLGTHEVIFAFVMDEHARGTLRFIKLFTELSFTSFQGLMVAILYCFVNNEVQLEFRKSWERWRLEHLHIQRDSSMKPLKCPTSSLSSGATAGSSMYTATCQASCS

Compound | activity change, negative = inhibition | Potency
CC(C)CN(C(=O)CSc1nc2ccccc2c(=O)n1C)C1CCS(=O)(=O)C1 (stereo not drawn) | inactive: 9.7% | –
CC1CCCC(NC(=O)CSc2ncnc3ccccc23)C1C (stereo not drawn) | – | inconclusive: 3.55 µM [inhibitor, partial curve, poor fit]
CC(C)(C)c1cc(C(=O)Nc2cccc3ccccc23)ccn1 | – | inconclusive: 10 µM [inhibitor, single point]
CC(C)CC(=O)Nc1ccc2oc(-c3cccnc3)nc2c1 | inactive: -2.65% | –
CC1(C(=O)NS(=O)(=O)c2ccc(F)cc2F)CCN1C(=O)C1(c2ccc(Cl)cc2)CCC1 (stereo not drawn) | – | inconclusive: 10 µM [inhibitor, partial curve, poor fit]
CC1(c2ccc(OC(F)F)cc2)NC(=O)N(CC(=O)Nc2ccc(F)cc2)C1=O (stereo not drawn) | – | inconclusive: 10 µM [inhibitor, partial curve, poor fit]
Cc1ccc(N(C)S(=O)(=O)c2c[nH]c3ccc([N+](=O)[O-])cc23)cc1 | – | inconclusive: 7.94 µM [inhibitor, partial curve]
COc1ccccc1NC(=O)Nc1ccc(Cl)c(S(=O)(=O)Nc2ccccc2OC)c1 | – | inconclusive: 1.78 µM [inhibitor, partial curve, poor fit]
O=C(OCc1cccc(C(F)(F)F)c1)c1cc(S(=O)(=O)N2CCOCC2)ccc1F | – | inconclusive: 28.2 µM [inhibitor, single point]
COc1ccc(C2CC(O)(c3ccccc3)Oc3cc(OC)c(OC)c(OC)c32)cc1 (stereo not drawn) | – | inconclusive: 11.2 µM [inhibitor, single point]
C=CCn1c(=N)n(CC(=O)c2ccc(Br)cc2)c2ccccc21 | – | inconclusive: 14.1 µM [inhibitor, partial curve, poor fit]
COC(=O)C1=C(C)N(Cc2ccc(OC)cc2)C(=O)/C1=C\c1ccco1 | – | inconclusive: 8.91 µM [inhibitor, partial curve]
Cc1cc(C)c(C)c(OCC(=O)N2CCN(c3ccccn3)CC2)c1 | – | inconclusive: 5.62 µM [inhibitor, partial curve]
O=C(CC1CCCCC1)NCc1ccccc1Cl | – | inconclusive: 12.6 µM [inhibitor, partial curve, poor fit]
CCOc1ccc(C2C(C(=O)Nc3ccccc3OC)=C(C)Nc3c(C(=O)Nc4cccc(C)c4)cnn32)cc1 (stereo not drawn) | – | inconclusive: 17.8 µM [inhibitor, single point]
CC(C)(Sc1ccc(CCN(CCCCC2CCCCC2)C(=O)NC2CCCCC2)cc1)C(=O)O | inactive: -20.9% | –
COc1ccc(C(=O)NCCn2ccc3ccccc32)c(OC)c1 | inactive: 0% | –
O=C1CC(c2nnc(Cc3cccc(Cl)c3)o2)CN1c1ccccc1 (stereo not drawn) | inactive: -3.4% | –
CCCCNC(=O)C[C@@H]1C[C@@]2(C(=O)OCC)CCCC=C2N(Cc2ccc(Cl)cc2Cl)C1=O | – | inconclusive: 10 µM [inhibitor, partial curve, poor fit]
Cc1ccc(NC(=O)Nc2nnc(Cc3ccc([N+](=O)[O-])cc3)s2)cc1C | – | inconclusive: 15.8 µM [inhibitor, partial curve, poor fit]
CCOc1ccc(Nc2sc(C(=O)c3ccc4c(c3)OCO4)c(N)c2S(=O)(=O)c2ccc(C)cc2)cc1 | inactive: -2.72% | –

Compound | activity change, negative = inhibition | Potency
CCOc1ccc(-n2c(-c3ccccc3)c[n+]3c2CCC3)cc1 | – | inconclusive: 22.4 µM [inhibitor, partial curve, poor fit]
CCN1CCN(c2ccc(NC(=O)Cc3ccccc3)cc2)CC1 | – | inconclusive: 2.51 µM [inhibitor, full curve]
Cc1c(N=NC2=C(O)CC(C)(C)CC2=O)cc2c(c1[N+](=O)[O-])C(C)(C)CC2(C)C | – | inconclusive: 1.12 µM [inhibitor, full curve, poor fit]
CS(=O)(=O)NCCCNc1ccc(Cl)cc1[N+](=O)[O-] | inactive: 0% | –
CCC(CC)C(=O)Oc1c(Sc2ccccc2[N+](=O)[O-])c(C)nn1C(C)(C)C | – | inconclusive: 8.91 µM [inhibitor, partial curve, poor fit]
COc1ccc(-c2cc(C(F)(F)F)nc(NCc3ccc(Cl)cc3)n2)cc1 | – | inconclusive: 28.2 µM [inhibitor, single point]
CCOC(=O)N1CCN(Cc2nc3cc(NC(=O)c4ccco4)ccc3n2C)CC1 | inactive: 18.6% | –
Cn1nc(C(=O)N2CCN(c3ccc(Cl)cc3)CC2)c2c1-c1ccccc1S(=O)(=O)C2 | – | inconclusive: 22.4 µM [inhibitor, partial curve, poor fit] and inconclusive: 11.2 µM [inhibitor, partial curve]
COC(=O)c1ccc(OCC(O)CNC2CCCC2)cc1 (stereo not drawn) | – | inconclusive: 7.94 µM [inhibitor, partial curve, poor fit]
Cc1noc(C)c1COc1cccc(C(=O)OCC(=O)N2CC(=O)Nc3ccccc32)c1 | – | inconclusive: 1.41 µM [inhibitor, full curve, poor fit]
CCOc1ccc(-c2c(C)nn3c(C)c(C(=O)NCCc4ccccc4)cnc23)cc1OCC | inactive: 10.5% | –
COc1ccc(OCc2cc(C(=O)NC(C)Cc3cnccn3)no2)c(Cl)c1 (stereo not drawn) | – | inconclusive: 28.2 µM [inhibitor, single point]
COc1ccc(N(C)S(=O)(=O)c2cccc(C(=O)Nc3ccc(N4CCOCC4)cc3)c2)cc1 | – | inconclusive: 28.2 µM [inhibitor, single point]
CCC1CN(C(=O)Nc2cccc(OC)c2)c2ccccc2O1 (stereo not drawn) | – | inconclusive: 28.2 µM [inhibitor, single point]
N/C(=N\OC(=O)c1ccccc1Cl)c1cccnc1 | – | inconclusive: 11.2 µM [inhibitor, single point]
COc1ccccc1N(CCOc1ccccc1)S(=O)(=O)c1ccccc1 | – | inconclusive: 11.2 µM [inhibitor, partial curve, poor fit]
Cc1[nH]c2ccccc2c1N=Nc1ccccc1F | – | inconclusive: 8.91 µM [inhibitor, partial curve]
CCCn1c(N)c(Sc2ccc(Cl)cc2)c(=O)n(CCC)c1=O | – | inconclusive: 12.6 µM [inhibitor, single point]
CCCN(CC(=O)Nc1ccc(Cl)cc1Cl)C(=O)/C=C/c1cccc([N+](=O)[O-])c1 | – | inconclusive: 11.2 µM [inhibitor, single point]
Oc1ccc(N=Nc2ccc(Br)cc2)c(O)c1 | – | inconclusive: 28.2 µM [inhibitor, single point]
CC(C)CNCC(=O)N1c2ccccc2Sc2ccccc21 | – | inconclusive: 31.6 µM [inhibitor, partial curve, poor fit]

Compound | activity change, negative = inhibition | Potency
Cc1ccccc1Cn1c2ccccc2c2cnn(CC(=O)NCCCc3ccccc3)c(=O)c21 | inactive: -8.36% | –
O=C(Cn1c(-c2cccs2)cc2cc(F)ccc21)N1CCN(c2cccc(Cl)c2)CC1 | – | inconclusive: 11.2 µM [inhibitor, partial curve]
CSc1ccc2c(c1)N(CCC1CCCCN1C)c1ccccc1S2 (stereo not drawn) | – | inconclusive: 28.2 µM [inhibitor, single point]
COc1ccc(-n2nc(C#N)c(Cl)cc2=O)cc1 | – | inconclusive: 2.51 µM [inhibitor, full curve, poor fit]
COc1cccc(Cc2nc3ccccc3nc2SCC(=O)N2CCN(c3ccccc3)CC2)c1 | – | inconclusive: 20 µM [inhibitor, single point]
COc1ccc(N(C(=O)c2ccc(F)cc2)C2=CC3CCC(C2)N3C)cc1 (stereo not drawn) | – | inconclusive: 2 µM [inhibitor, full curve, poor fit]
O=C(Nc1cc(-c2nc3ccccc3o2)ccc1Cl)c1ccc(Br)o1 | inactive: 10% | –
COCCCNCCOc1ccccc1-c1ccccc1 | – | inconclusive: 28.2 µM [inhibitor, single point]
O=C1Cc2ccccc2Sc2cc(OCCCN3CCCCC3)ccc21 | – | inconclusive: 10 µM [inhibitor, single point]
CCN(CC)c1ccc(/C=N/Nc2nc3ccccc3[nH]2)cc1 | – | inconclusive: 31.6 µM [inhibitor, single point]
C/C(=N/N1CCN(Cc2cccc3ccccc23)CC1)c1ccco1 | – | inconclusive: 28.2 µM [inhibitor, single point]
CCC1CCc2c(sc(NC(=O)c3ccoc3C)c2C(N)=O)C1 (stereo not drawn) | – | inconclusive: 28.2 µM [inhibitor, single point]
O=C(Cn1ncc(Cl)c(Cl)c1=O)c1ccc2c(c1)OCCO2 | – | inconclusive: 28.2 µM [inhibitor, single point]
Cc1csc2nc(CSc3ccc(Cl)cc3)cn12 | – | inconclusive: 28.2 µM [inhibitor, single point]
Cc1ccc(NS(=O)(=O)c2cc(NC(=O)c3ccc4c(c3)NC(=O)CS4)ccc2C)c(C)c1 | – | inconclusive: 3.98 µM [inhibitor, partial curve, poor fit]
CC/C(=C(/CC)c1ccc(O)cc1)c1ccc(O)cc1 | – | inconclusive: 31.6 µM [inhibitor, partial curve, poor fit]
COc1ccc(CNC(=O)c2cc3c(-c4ccccc4F)nn(C)c3s2)cc1 | – | inconclusive: 11.2 µM [inhibitor, single point]
CC(=O)c1ccc(NC(=O)CSc2nc(C3CC3)nc3ccccc23)cc1 | inactive: -7.94% | –
CCS(=O)(=O)NCC(c1cccnc1)N1CCN(c2ccccc2OC)CC1 (stereo not drawn) | inactive: 5.7% | –
Cc1nn(-c2ccccc2)c(C)c1/C=C1\C(=O)N(C)C(=S)N1C | – | inconclusive: 28.2 µM [inhibitor, single point]
O=C(Nc1ccc(Br)cc1F)C(NS(=O)(=O)c1cccc2nsnc12)c1ccccc1 (stereo not drawn) | – | inconclusive: 28.2 µM [inhibitor, single point]
